Measured values: the supplement of paper PMC11417369
± gives the standard deviation of the averaged measurements. Some of the results follow.

System: PfAP2-I AP2 domain 3 (GST-tagged)
Test: gcPBM binding intensity (ln(normalized median fluorescence intensity)); higher = stronger DNA binding
Procedure, shortened: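 Binding intensity is the highest Masliner-normalised natural-log median intensity over replicate spots in either probe orientation. To obtain it, GST-tagged P. falciparum DNA-binding domains made in E. coli were incubated for 1 h on an Agilent 4 × 180k array of primer-extended double-stranded 36-bp intergenic genomic probes plus negative controls. Detection used Alexa488 anti-GST antibody with scanning at 488 nm.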

| Sequence | gcPBM binding intensity (ln) |
| --- | --- |
| AAGAAAGACATTACGTGTACCAAACAACCTACCAAC [XGTACX_site4219] | 8.22 ± 0.25 |
| AAAATTAAACTCACACCACACACAAAAAAAAAAAAA [CACACA_site8131] | 8.07 ± 0.53 |
| ATGTATATGTCTATATGTACTTATATTTTATTTTTT [XGTACX_site5902] | 7.58 ± 0.38 |
| TGTTTTATCTTATATGCACACGATAAAAAAAAAAAA [CACACA_site2674] | 9.55 ± 0.17 |
| ACATAAATATAAACGTGTACATATATAAATATATAT [XGTACX_site7293] | 8.06 ± 0.26 |
| CATATATAAAAAAACACACACATATATATATATATA [CACACA_site1195] | 9.35 ± 0.47 |
| ATATATTTTAATTGTTGTACATATTAAATAAATAGG [XGTACX_site2311] | 7.75 ± 0.25 |
| ATTTTTTTTTTTTATAGTGGATCCACATTTGCCATT [CACACA_negctrl_site1284] | 7.86 ± 0.81 |
| TATATTTTATATATGGTGCAACTTTTATTTAAATAA | 9.4 ± 0.16 |
| AGTTTTTATAAAAATAGTACATATTTATTAATCTGT [XGTACX_site5881] | 7.66 ± 0.39 |
| CCCACAGACGGACACACACACACACCGACACATATA [CACACA_site4356] | 8.52 ± 0.071 |
| TTTTGTGCTTAAAAAAGTACAAAATATAAAAAAAAT [XGTACX_site7876] | 9.03 ± 0.36 |
| TGCAGTCTGGAGAAACGTACACAGTATCTGGTAACC [XGTACX_site2543] | 7.67 ± 0.74 |
| TTCTATTTTAATATCTGTACATAATAAAGATCCATT [XGTACX_site1142] | 7.86 ± 0.4 |
| AAAATTGAACCTGACAAGGTATTTTATTATTTATTA [TGCATGCA_negctrl_site181] | 7.22 ± 0.55 |
| TGAGTACACAATAATACATGCAATTCCTATGAATAT [TGCATGCA_site851] | 7.8 ± 0.33 |
| ATAAATATTAAAAGTACACACAGATACACTAATTAT [CACACA_site1808] | 7.92 ± 0.52 |
| ATATGACATAAAACATGTACATGTTCATAAATATAT [XGTACX_site1923] | 7.89 ± 0.47 |
| TACACTTTTTATGAAGTGCATGTATAGCTCTTAAAA [GTGCAC_site9595] | 8.38 ± 0.28 |
| ATTTACATAATAAAATGTACATTTATAAATATTATA [XGTACX_site1901] | 7.75 ± 0.35 |
| CATTATTCATTTTGGATGCACTGACAGAAAAATGGT | 9.63 ± 0.099 |
| ATGCTCAGGAAAACATGTACAAAATTATTTGTTATA [XGTACX_site4306] | 7.6 ± 0.42 |
| TTATAATAATATAATACATGCATATATATTTAAATA [TGCATGCA_site903] | 7.84 ± 0.61 |

| Sequence | gcPBM binding intensity (ln) |
| --- | --- |
| ATAAACATATAAAAAGTGCATATTCATATATCTACT | 9.365 ± 0.092 |
| AATACACTAAACAAAAGTACAAAAATATTCTACAAA [XGTACX_site5162] | 7.67 ± 0.53 |
| ATGGCCTCATTTGGGACACACAACATAAAATATATA [CACACA_site753] | 7.66 ± 0.69 |
| AAATATATTTTATGTACACACAAAATTAAGGGATAT [CACACA_site4881] | 8.09 ± 0.5 |
| TGTTAATTATAAATTTGTACTTATTTTTACAAAATA [XGTACX_site6598] | 7.82 ± 0.26 |
| CATTTTTTATTTCCTTGTACGAATAAAATATATTTA [XGTACX_site6844] | 7.99 ± 0.36 |
| AATTTAATATAATGCACACATAAAACAAAAACAAAA [CACACA_site529] | 10.8 ± 0.72 |
| TATTATCGTTCTCATACACACAAAATATACATACAC [CACACA_site2643] | 8.12 ± 0.3 |
| TACGTAAATGTGTGTGTGCACGTTATATATTAATAT [GTGCAC_site9976] | 10.4 ± 0.35 |
| ATATAATAATAAAGACGTACAAATGTATATATATAC [XGTACX_site3123] | 7.97 ± 0.45 |
| CCTTTTTATCTTTTTGTGCACAGACCTTTTTTAAAT | 10.835 ± 0.007 |
| ATGTAAGTTGTGCATTCACACACATATATATATATA [CACACA_site9086] | 9.83 ± 0.16 |
| ATTTTTTTTTTTTTTTTTTTTTTATTCTTGTAATCT [CACACA_negctrl_site1039] | 7.58 ± 0.61 |
| AAAAAAAAAAAAAACATACACACAATAAAATAGGGG [CACACA_site2398] | 8.54 ± 0.54 |
| TATTTAAATTTTAAGTGTACATATTTATTTATATCT [XGTACX_site6545] | 7.81 ± 0.18 |
| AAAAAAAAAAAAATCACACATAATATAGAATATGTA [CACACA_site4993] | 7.43 ± 0.3 |
| ATATATATATATATAACACACGCAAAAAAATTAAAT [CACACA_site8395] | 9.495 ± 0.064 |
| AACTTAAAAAATAAATGTACATAAATATAAACATAT [XGTACX_site2987] | 7.63 ± 0.49 |
| AAAATGAATAAAAATACACACATATCTGTTATTCTC [CACACA_site5474] | 7.46 ± 0.61 |
| GAATATTAATTCATACGTACTTATATATAAGTATAT [XGTACX_site3707] | 7.7 ± 0.43 |
| TCACTATAATAATTTACACACATTTTAAGAAAATGT [CACACA_site3530] | 7.7 ± 0.31 |
| TATAAAAATGGGCACACACACACATATATATATTTA [CACACA_site1527] | 8.02 ± 0.35 |
| GATGTTCATCACTACACACACAAAGAAATATATATA [CACACA_site2684] | 7.97 ± 0.73 |

| Sequence | gcPBM binding intensity (ln) |
| --- | --- |
| TTGTATTTCCTTAGGAGTACACATAAATAAGTAAAT [XGTACX_site6677] | 8.22 ± 0.092 |
| AAAGAAAAAAAATATAAAAAATAAAAAATAAAACAA [CACACA_negctrl_site374] | 7.54 ± 0.59 |
| TAATATATGTATATATGTACATATAAATGTTATAGA [XGTACX_site2721] | 7.8 ± 0.32 |
| TTGGTATAAAATTATAGTACATAAGGTAAATATAAA [XGTACX_site4698] | 7.89 ± 0.36 |
| ATTTATATGTGGAGCAGTACGCACTCTCACAATTAA [XGTACX_site7252] | 8.55 ± 0.33 |
| TAAAAATTATATATCACACATATATGTCAGTATACA [CACACA_site4624] | 7.49 ± 0.49 |
| ATCATTTTTAAAGGAACACACAAAAAAAATTAAAAT [CACACA_site4878] | 7.86 ± 0.73 |
| ACATATATTATTATATGTACATATATTAATTATATA [XGTACX_site3400] | 7.81 ± 0.057 |
| ACTCTCTTATATTAAACACACATATATATCTGTATA [CACACA_site5489] | 8.21 ± 0.65 |
| CTTCTCTTTTTTATCATGCACTTTTTGTATAATAAT [GTGCAC_site9834] | 9.7 ± 0.18 |
| GTAAAATATATAAAATGTACATATATTATATATATA [XGTACX_site489] | 8.54 ± 0.28 |
| TTTCTTTATTAAAATATTTTACATATATAATATACG [TGCATGCA_negctrl_site564] | 7.92 ± 0.55 |
| CATTTAAAAGATAAAACACACATACTAATAAAAAAC [CACACA_site5417] | 8.06 ± 0.56 |
| AGAATACATATATGAACACACAGAGTTTTAAAAAAT [CACACA_site2735] | 7.94 ± 0.31 |
| TTTAAATAATCTAGGTGTACTTTCCTTTATAAATGT [XGTACX_site7859] | 7.72 ± 0.44 |
| TATTTCAATATATACCTTTGCTTTTTTAATATACTT [XGTACX_negctrl_site556] | 7.75 ± 0.6 |
| AATATAAATAAAAACACACACAATGGTACCTATATA [CACACA_site7688] | 7.83 ± 0.61 |
| TCAATATAAATTAGTTGTACAGTTTTTTTTAATTAT [XGTACX_site6358] | 7.62 ± 0.49 |
| ATCAAATAATAGCAAACACACAAAAAATAAAAAAAA [CACACA_site4146] | 7.72 ± 0.54 |
| AATGTTTTTTTTTTTTTTTTTTTTTATTTATTGTTA [CACACA_negctrl_site505] | 7.36 ± 0.42 |
| ATTTTTTGGAAAAGAAGTACAATGGATTTATACGTT [XGTACX_site891] | 7.81 ± 0.4 |
| TAACATATAATATTATGTACATATATACATATATAA [XGTACX_site7467] | 7.75 ± 0.18 |
| AAAAAATCACGACACACACACACACTAAAAAAAAAA [CACACA_site6792] | 8.33 ± 0.34 |

| Sequence | gcPBM binding intensity (ln) |
| --- | --- |
| CACTACATTATGTCATAAATGCATACATAAACATAT [GTGCAC_negctrl_site513] | 8 ± 0.54 |
| TTTATATTTCAATTTTGTGCTTCGCAAATTGAGAGG [TGCATGCA_negctrl_site327] | 7.57 ± 0.42 |
| TATAACATAATATAGACACACACATGTACTTATGCC [CACACA_site8547] | 7.91 ± 0.38 |
| GAAAAGCATAGATGCACACATATATATATATATATA [CACACA_site2169] | 9.4 ± 0.35 |
| GTGTTAATTTTAAATTGTACAAAATTTATATGATTT [XGTACX_site348] | 7.83 ± 0.38 |
| ATTAATTTTGGTTCATGTACATAAGAAATAAACTCT [XGTACX_site4534] | 7.97 ± 0.35 |
| ATTTTTATACGTTTTTTTTTTTTTTTTTTTTATTTA [CACACA_negctrl_site1142] | 7.41 ± 0.71 |
| ATATACTTTTTTTTTTTTTTTTTAACGTTATTTATG [CACACA_negctrl_site1277] | 7.54 ± 0.53 |
| AAAATATATGAAAACAGTACATATAAAAATTAAAAA [XGTACX_site2594] | 7.65 ± 0.62 |
| TTACACATATATATAAATATATATAAATATATATAT [CACACA_negctrl_site150] | 8.42 ± 0.31 |
| TATTTGTTTGAATTTTTTTTTTTTTTTTTTTATGTG [CACACA_negctrl_site966] | 7.18 ± 0.3 |
| TACAGACAGAAATGCACACACATATATATATATATA [CACACA_site2283] | 9.53 ± 0.18 |
| TATATTTATATCCACTTCGTTTAACGCACAGATATA [CACACA_negctrl_site954] | 9.71 ± 0.28 |
| TGAGATATAAAAATATGTACTTATGTATAAATATTT [XGTACX_site7746] | 7.6 ± 0.55 |
| CCAAATTTATTTTGTAGTACTCCGTATAGATCAACA [XGTACX_site7945] | 8.06 ± 0.11 |
| ATTATAAAAATATATTGTACACAAAAATGTTTATAT [XGTACX_site5066] | 7.8 ± 0.2 |
| AAGTTTTTTTTTAACACACACATAATAAAATAAATA [CACACA_site446] | 8.15 ± 0.19 |
| TTGAAAAATGAGCACACACACAAATACATACATATT [CACACA_site3231] | 7.97 ± 0.36 |
| CAAAAAACAACAGATCGTACAAAATATTATATATAT [XGTACX_site2285] | 8.12 ± 0.67 |
| TATCCATATTTGTTCACACACACACCGATTTATATA [CACACA_site5888] | 8.12 ± 0.62 |
